# Test results as given in the supplement of paper PMC11417369.
# ± gives the standard deviation of the averaged measurements. The list shows a part of the results.
# Test system: PfAP2-EXP AP2 domain (GST-tagged)
# Test: gcPBM binding intensity (ln(normalized median fluorescence intensity)); higher = stronger DNA binding
# Method in brief: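 GST-tagged P. falciparum DNA-binding domains produced in E. coli were incubated for 1 h on an Agilent 4 × 180k array of primer-extended double-stranded 36-bp intergenic genomic probes with negative controls. Binding intensity is the highest Masliner-normalised natural-log median intensity across replicate spots of either probe orientation, with bound protein detected by Alexa488 anti-GST antibody at 488 nm.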
row,Sequence,gcPBM binding intensity (ln)
1,AAACTTTACATTACTTGTACATATATTCTATATAAT [XGTACX_site8640],8.78 ± 0.37
2,TAAAGAAATAAATACATACACACATATATATATATA [CACACA_site3363],10.2 ± 0.5
3,TTATATTTTACAAATGCACACATAATTTTTTTTTTT [CACACA_site8890],8.38 ± 0.19
4,AAAAAAAAAAAAAAATGTACATGACATGACATGACA [XGTACX_site4020],8.49 ± 0.4
5,TTTGATAATAAGATATAATACTTAAATATATATATA [GTGCAC_negctrl_site339],9.36 ± 0.12
6,AAATATATATTCAAAAGTACACAATTTGTTAATAAT [XGTACX_site8917],8.59 ± 0.33
7,TATTTTACGCGGTTTATAATGACATGTTCTATATTT [CACACA_negctrl_site1184],8.9 ± 0.51
8,AGCCCTTTTTTTTTTTAGAATATTGCATAATTATAT [XGTACX_negctrl_site546],8.55 ± 0.35
9,GTATTGTATGGATGGGGTACTATATATATATATTTT [XGTACX_site1694],9.51 ± 0.62
10,TATATAAATATATCCACACACATACCTATATTAATA [CACACA_site6184],8.36 ± 0.47
11,TTTATATGTTTTAAGTGTACACATATAATGTATTTT [XGTACX_site3069],8.7 ± 0.23
12,TTATAATTAAATTTCACACAGTTCATAACATAATTA [CACACA_site5501],8.29 ± 0.39
13,TAAGGGAGAGATTTGTATCATAAGCAACTTTCAAAA [CACACA_negctrl_site1436],8.37 ± 0.32
14,ACTTTCAACATGAAGTTGCACTTTTTTTTTTTTCTT,8.6 ± 0.43
15,TAATTAAATAAAAAAAAATATATATATATATATATA [XGTACX_negctrl_site616],10.12 ± 0.085
16,TTTTTTAAAAATAACTGTACAGAGGCTGTTAGGATA [XGTACX_site2521],9.05 ± 0.33
17,AGACAATATTAATAAGGTACACATATATATTAAAAA [XGTACX_site6709],8.61 ± 0.38
18,TATAATTTTTTTGAATTATATATATATATATATAAT [XGTACX_negctrl_site26],8.27 ± 0.17
19,TGATATAAAATTAAAGTGCAAAAAAAAAATAAAAAA,8.65 ± 0.34
20,ATAATATTATGAACCTGTACATAATTTTTCTTTTCT [XGTACX_site3377],8.22 ± 0.31
21,AGTATATTTCTAACTTGTACGAAATTAATAATTTAT [XGTACX_site6635],8.52 ± 0.54
22,TATATATAATATGAATGTACACAAAAAGGTAATACA [XGTACX_site6202],8.99 ± 0.41
23,AAAAAAAAGAAATAGACACACATATATTTTTAAACA [CACACA_site3954],8.28 ± 0.46

row,Sequence,gcPBM binding intensity (ln)
1,GATGAGGACAGACACACACACATAAGTTGATACATA [CACACA_site7580],8.71 ± 0.54
2,CATTTTATAAAAACAAGTACCCAACATATATATAAT [XGTACX_site5955],8.77 ± 0.55
3,AGACATATTCTTTTTACACACTTGAATAAAAAATAT [CACACA_site1205],8.37 ± 0.37
4,TTTTTTTCTTAAAGATGTACTTTTTAAAAACAATCT [XGTACX_site986],8.58 ± 0.23
5,GTTTTTACTTTTATCTGTACATAATACTACCAATAT [XGTACX_site5414],9.02 ± 0.34
6,TGCCTATGACATGAATGTACATTAAAATTAAATAAA [XGTACX_site7126],8.46 ± 0.45
7,CTGTACACTTAAACGGTGCAAAAAGAAAAAAAAGAA,9.155 ± 0.035
8,CACGCGCACCAACACACACACACACCCATATATATA [CACACA_site2204],8.84 ± 0.4
9,GTTGGGTAATTCGTAACACACATAAAATATATATAA [CACACA_site3986],8.62 ± 0.42
10,TTCTTTATATAAACAAGTACATATAAAATACATATA [XGTACX_site8036],8.45 ± 0.59
11,AAGTTAATGTTTTGCGCACACTTCTTTTTAATATAA [CACACA_site3938],9.13 ± 0.41
12,ACAGCTCTAGGACATGCATGTTATATAGAAAAAGAG [TGCATGCA_site703],9.59 ± 0.32
13,TTCATTAAAGTTATTACACACAGTTCTTCAACCAAA [CACACA_site7613],8.48 ± 0.35
14,AAATACATATTTAGAAGTACATTTATACATTTAATA [XGTACX_site8871],8.28 ± 0.27
15,ATTTTTTCTTATAAAAAAGAAAAAGAAAAAGAAAAA [CACACA_negctrl_site1216],8.64 ± 0.64
16,TATATATTAAGATGCACACACAAGAAGTAATTATAA [CACACA_site5726],8.93 ± 0.35
17,GAATCACTAATTTTTTTACACACCACAATTTAATTT [CACACA_site8311],8.94 ± 0.47
18,TTTCGAATTAAAGCATGTGAAAATTTTCAAAAAATA [XGTACX_negctrl_site577],8.55 ± 0.52
19,ATAATAATATAATATTCACACAATTGAAATAGTGTA [CACACA_site6083],8.11 ± 0.3
20,ACAAAACATAATTGTTGTACAAAAAGAATTATATAT [XGTACX_site8422],9.38 ± 0.64
21,AAATAAAAATTACAAGCATGCATTTTCCTATTTGCA [TGCATGCA_site861],8.56 ± 0.46
22,GTGTAAAAATTAAAGTGTACACATATATATATATAT [XGTACX_site2251],10.2 ± 0.31
23,TTTAAATATATTAATACACACACGATATGTACAAAA [CACACA_site539],8.62 ± 0.33

row,Sequence,gcPBM binding intensity (ln)
1,AAAAAATTTTGAAATTGTACATATATAAAAAATATA [XGTACX_site2629],8.38 ± 0.35
2,GAATAAATTGTATTGTGTACATATAAAAGCATCTAA [XGTACX_site8271],8.69 ± 0.37
3,TATAAATATACAAAGGTGCATAAAAAGTTATGTTTT [GTGCAC_site9832],8.85 ± 0.4
4,TTTCTATAATATTCTACACACCAACAACAAACATAT [CACACA_site6409],8.89 ± 0.47
5,ATGTAGAAGTAATGCACACATATGTATATATATATA [CACACA_site2494],10.1 ± 0.38
6,GGTCTTTTTATGATATGTACTTATATAATATTATAT [XGTACX_site6458],9.05 ± 0.33
7,AACAGCATGAAGTAAAGTACTAGTTTTATTTATTTA [XGTACX_site1116],8.14 ± 0.49
8,ATAATATATAATATAGTGCATTATTTATTAATTAAT [GTGCAC_site9852],8.56 ± 0.085
9,AGGAAATTTTTTTTTTTTTTTTTTTTTTTTTTTTAC [TGCATGCA_negctrl_site170],7.86 ± 0.73
10,CAAAATATTATGAATTGTACATATTTTAAAACGTTT [XGTACX_site1614],8.46 ± 0.35
11,ATAGATGTCTTCATATGTACATAAATTCAAGTATAT [XGTACX_site7492],8.63 ± 0.47
12,TGATTATAAAAGTAGGTGCTACAAAAATTACACATT [GTGCAC_site9530],8.45 ± 0.39
13,TCCTAATGGTTTAATTGTACAAAAAAAAAAAATATA [XGTACX_site322],8.44 ± 0.5
14,TGATAAGTATACTAAAGTACATGAAAAATAACTTCC [XGTACX_site6908],8.55 ± 0.35
15,TGGATGAGGACATACACACACACATAAGTTGATACA [CACACA_site3423],8.73 ± 0.45
16,TTATATTTTAAGAAATGTACATGATATAATTATCAA [XGTACX_site8693],8.39 ± 0.35
17,TTTTTTTTAATTTTCTGTACAAATTTATATATACTA [XGTACX_site4251],8.68 ± 0.47
18,TATTTCTTATGAAGGACATGCAATATTATTTATCTC [TGCATGCA_site683],8.49 ± 0.25
19,AATGAAAAGGAACATACACACCCCATATAAATATAT [CACACA_site7588],9.34 ± 0.81
20,TCATATTTTACATATGCATGTTAATAATACAAACAT [TGCATGCA_site994],8.47 ± 0.41
21,TTTTTTTCGTATATTACACACTATAAATAGAAATTA [CACACA_site6278],8.55 ± 0.45
22,GTATAACAACTGATAAAAGAAAAAAAATTTATTATT [CACACA_negctrl_site377],8.32 ± 0.41
23,ATAATATTTTTAAACTGTACTTTTATAAACACTTAT [XGTACX_site2625],8.55 ± 0.39

row,Sequence,gcPBM binding intensity (ln)
1,ATTTATTTATGTATTTGTACGTATATATTTATGCAT [XGTACX_site5218],8.75 ± 0.37
2,ATATTATGTCTACATAAACACACATATATATAAAAA [CACACA_site7976],8.62 ± 0.48
3,AATAAATATTCATTTTGTACATATTTTTCGTATATG [XGTACX_site6104],8.54 ± 0.39
4,TTACCATAAGTATGTGGTACACTTTAAATGAAGATA [XGTACX_site6972],8.46 ± 0.42
5,AATAGTTATAAATATAAATATATATATATATATATA [CACACA_negctrl_site414],10 ± 0.29
6,TATATATATAAATACACACACACCCTAAAAATATAT [CACACA_site4970],8.99 ± 0.57
7,TTAACATCAAAATATGCACACAAACAATTAGCGGTA [CACACA_site8801],8.69 ± 0.44
8,AAAACTATAATAAAAGGTACACATTTATTTTTTTCT [XGTACX_site730],8.32 ± 0.3
9,TATATTATTCATTAAGCACACATTATTTTTATAATA [CACACA_site6056],8.31 ± 0.29
10,ATGTTTGATGCTACACGTACACACCTTGCAAATATT [XGTACX_site1644],9.07 ± 0.38
11,TTTTTTTTTTTTTTTACACACACAAAATATTATATG [CACACA_site2471],8.44 ± 0.49
12,TATTATTTACCTTGCTAGTTCGTTCCAAATTTTATG [XGTACX_negctrl_site197],8.93 ± 0.52
13,AAAACAAATTTTAATGAGAATATGAAAAAAAAATAT [XGTACX_negctrl_site268],8.72 ± 0.45
14,CACATTATGTATCATACACACAAATAAATATAGAAT [CACACA_site609],8.81 ± 0.38
15,TATTCTAATATATGCATACACACAAATGTGAATATA [CACACA_site2143],8.47 ± 0.36
16,TTTATATGTATTAAGTGTACACATATAATGTGTTTT [XGTACX_site4890],8.46 ± 0.24
17,CAAAATTGAAGGAACACACATACATATATATATATG [CACACA_site179],8.65 ± 0.44
18,TAAAAAAGAACAGAAACACACAAATAAAATAAAATT [CACACA_site1758],8.89 ± 0.45
19,ATTTTAAATATTTGTGGTACCCCTTTTTTGTAACAA [XGTACX_site5590],8.86 ± 0.42
20,CTTTGTGGTATAGATACACACTATATTAATATGAAC [CACACA_site7081],8.55 ± 0.44
